Assay results published in PMC4336329 (PLoS ONE, 2015).
The campaign covered roughly 310,000 compounds. About 14,000 (4.5%) showed an effect of 50% or more. The effect is printed as a negative number. Some of the results follow.

target: human ether-à-go-go-related gene (hERG) potassium channel (human, UniProt Q12809); experiment: primary screen, population patch clamp on CHO cells stably expressing hERG
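Note: peak tail current of the secondary pulse compared with the same well before compound.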

Chain of human ether-à-go-go-related gene (hERG) potassium channel (Q12809 whole entry, looked up): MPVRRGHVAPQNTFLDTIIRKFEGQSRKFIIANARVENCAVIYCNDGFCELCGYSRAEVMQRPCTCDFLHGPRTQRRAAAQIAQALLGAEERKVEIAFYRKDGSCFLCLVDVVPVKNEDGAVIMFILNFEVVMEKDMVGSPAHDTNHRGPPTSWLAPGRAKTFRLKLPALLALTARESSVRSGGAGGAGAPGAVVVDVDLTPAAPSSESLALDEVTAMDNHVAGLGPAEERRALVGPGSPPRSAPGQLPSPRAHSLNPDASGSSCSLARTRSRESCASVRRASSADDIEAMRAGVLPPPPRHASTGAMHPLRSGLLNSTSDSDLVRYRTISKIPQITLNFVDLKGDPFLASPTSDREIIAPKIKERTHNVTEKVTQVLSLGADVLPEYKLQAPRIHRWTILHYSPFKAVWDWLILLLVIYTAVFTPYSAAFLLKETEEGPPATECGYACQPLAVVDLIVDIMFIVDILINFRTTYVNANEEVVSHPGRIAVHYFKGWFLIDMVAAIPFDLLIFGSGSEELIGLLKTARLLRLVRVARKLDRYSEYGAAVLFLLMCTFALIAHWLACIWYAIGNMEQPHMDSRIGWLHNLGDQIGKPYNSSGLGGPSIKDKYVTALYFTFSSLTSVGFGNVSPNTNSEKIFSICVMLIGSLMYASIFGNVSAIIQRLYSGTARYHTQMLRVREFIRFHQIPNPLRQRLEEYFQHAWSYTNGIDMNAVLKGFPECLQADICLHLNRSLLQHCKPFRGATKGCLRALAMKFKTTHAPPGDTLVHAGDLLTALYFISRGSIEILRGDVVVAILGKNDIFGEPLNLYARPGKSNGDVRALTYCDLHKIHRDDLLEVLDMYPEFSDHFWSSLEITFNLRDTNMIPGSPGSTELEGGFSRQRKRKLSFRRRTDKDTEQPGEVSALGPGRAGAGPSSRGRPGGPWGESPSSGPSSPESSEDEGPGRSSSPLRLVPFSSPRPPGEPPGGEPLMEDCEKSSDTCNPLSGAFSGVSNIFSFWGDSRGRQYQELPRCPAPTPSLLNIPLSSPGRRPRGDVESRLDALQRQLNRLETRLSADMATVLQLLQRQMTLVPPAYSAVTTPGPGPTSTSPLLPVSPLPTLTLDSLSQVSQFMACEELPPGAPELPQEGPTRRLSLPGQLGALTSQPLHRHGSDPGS

Compound | hERG current change (%, negative = inhibition) at 10uM
Cc1cc(C(=O)CSc2nc3ccccc3c(=O)[nH]2)c(C)n1CC1CCCO1 (stereo not drawn) | -0.542%
c1ccc2c(c1)[nH]c1nc3nncn3nc12 | 8.31%
O=C(OCc1nnc(-c2ccccc2)o1)c1ccc(Cl)cc1 | 1.7%
CC(C)c1cc(C(=O)N/N=C/C=C/c2ccccc2)n[nH]1 | 10.5%
CC(C#N)N1CCN(S(=O)(=O)c2ccc3c(c2)CCC3)CC1 (stereo not drawn) | 17.5%
Cc1ccc(-c2nn(CCC#N)cc2C(=O)O)cc1C | 11.3%
COc1ccccc1C1C2C(=O)N(c3ccccc3)C(=O)C2ON1c1ccccc1 (stereo not drawn) | 2.16%
O=C1CC(c2cccnc2)=NN1c1ccc(Cl)cc1Cl | 12.1%
CCc1cc(C(=O)N2CCCC(Nc3ccc(F)c(F)c3)C2)n(C)n1 (stereo not drawn) | -5.67%
COc1ccc(/C=C(\C#N)C(=O)NCC(c2ccc(F)cc2)N2CCOCC2)cc1 (stereo not drawn) | -10.2%
COc1ccc(/C=C/CN2CCCC(C(=O)c3cc(F)ccc3F)C2)cc1 (stereo not drawn) | -76.4%
COc1cccc2cc(C(=O)Nc3ccccc3C)/c(=N/O)oc12 | 8.46%
N#C/C(=C/c1cccc([N+](=O)[O-])c1)C(=O)Nc1ccccc1O | 14.6%
Cc1cc(C)c(NC(=O)C2CCN(C(=O)c3ccco3)CC2)c(C)c1 | 19.9%
CCOC(=O)Cc1csc(N/N=C/c2ccc(C(F)(F)F)cc2)n1 | 9.58%
O=C(NNC(=S)NCCCN1CCOCC1)c1ccncc1 | 35.2%
CCc1ccc(C(=O)C(C)OC(=O)Cc2n[nH]c(=O)c3ccccc23)cc1 (stereo not drawn) | -24%
CCc1c(C#N)c(SCCC(=O)Nc2ccc(OC)cc2)nc2c1C(=O)CC(C)(C)C2 | -1.28%
O=C(NCC(c1cccnc1)N1CCOCC1)NC1CCCCC1 (stereo not drawn) | 19.7%
CC(=O)N1CCN(CCN=Cc2c(O)n(-c3ccc(F)cc3)c(=S)[nH]c2=O)CC1 | 22.1%
CC(C)(C)NCC(O)COc1ccccc1C1CCCC1.O=S(=O)(O)O (stereo not drawn) | -28.5%
Fc1ccc(Oc2ccnc(Cl)n2)c(Cl)c1 | 9.03%
Cc1ccc(C(=O)N2CCN(c3ccc(NC(=O)c4ccc5c(c4)OCCO5)cc3)CC2)cc1 | -19%

Compound | hERG current change (%, negative = inhibition) at 10uM
N#CCCn1cc(/C=C(\C#N)c2nc3ccccc3s2)c(-c2ccc(F)cc2)n1 | 14%
CCOc1ccc(NC(=S)NNC(=O)c2cc(Br)ccc2Cl)cc1 | -7.06%
CN1CCN(S(=O)(=O)c2ccccc2)CC1 | 15.6%
CCC(NC(=O)c1ccccc1NC(=O)c1ccco1)C(=O)NNC(=O)c1ccc(OC)cc1 (stereo not drawn) | 10.3%
COc1ccc(CCNC(=O)COc2cc(C)cc3oc(=O)cc(C)c23)cc1 | 8.56%
CCOc1cc(/C=N/NC(=O)CSc2nncn2C)ccc1OC(=O)c1ccc(Cl)cc1 | -1.9%
O=C(CSc1ccccc1C(=O)O)c1ccccc1 | 13.8%
Cc1ccc2nc(NCCCNC(=O)c3cnccn3)c(C#N)cc2c1 | -5.49%
COc1ccc(CN2[C@@H](CC(C)=O)c3ccc(/C=C/C(C)=O)cc3S2(=O)=O)cc1 | -30%
O=C(CSc1ccccc1)NCC(c1ccco1)N1CCCCC1 (stereo not drawn) | -13.9%
CN(C(=O)c1cccc(COc2ccc(Cl)cc2Cl)c1)c1ccccc1 | 7.35%
CC(=O)c1cccc(NC(=O)NCc2cccs2)c1 | -1.72%
Cc1nnc2ccc(N3CCN(C(=O)c4ccccc4)CC3)nn12 | -0.844%
CC(Sc1nc(-c2ccccc2)cc(=O)[nH]1)C(=O)O (stereo not drawn) | 11.4%
CCCCNC(=O)c1c(CSc2ccc(Cl)cc2)noc1C(=O)NCc1ccccc1 | 11.1%
N#Cc1cc2c(nc1SCC(=O)NCc1ccc3c(c1)OCO3)CCCCC2 | -11.3%
Cc1ccc2oc(=O)c3cnn(CC(=O)N(CCC(C)C)Cc4ccco4)c3c2c1 | -12.5%
COc1ccccc1C(=O)NC(=O)COC(=O)c1ccc(NC(=O)CC#N)cc1 | 15.3%
CN1C(=O)c2ccccc2C(C(=O)O)C1c1cn(C)c2ccccc12 (stereo not drawn) | 17.6%
O=C(NCCNc1nccc(C(F)(F)F)n1)c1cccc(C(F)(F)F)c1 | -8.47%
COc1cccc(CNC(=O)C2CCC(CNc3c(N4CCC(C)CC4)c(=O)c3=O)CC2)c1 (stereo not drawn) | 2.37%
COc1ccc(CCNC(=O)CNS(=O)(=O)c2cccs2)cc1OC | -2.17%
Cc1cc(C(C)(C)C)c(O)c(C)c1CC1=NCCN1.Cl | 0.581%

Compound | hERG current change (%, negative = inhibition) at 10uM
c1ccc(Nc2nc(-c3ccncc3)nc3ccccc23)cc1 | -0.628%
COC(=O)COc1cccc(NC(=O)c2cc(OC)cc(OC)c2)c1 | -0.7%
CN1CCN(c2nc(-c3ccncc3)nc3ccccc23)CC1 | -67.4%
COc1cc(/C=C/c2nc(N)nc(-c3ccccc3O)n2)cc(OC)c1OC | -3.86%
Cc1cc(OCC(=O)Nc2ccc3c(c2)OCCO3)cc(C)c1Cl | -5.18%
O=C(OCC(=O)N1CCN(C(=O)c2ccco2)CC1)c1ccccc1NCCO | 12.6%
CCOC(=O)c1cccnc1SCC(=O)NCc1ccccc1 | -2.75%
CN(C(=O)COC(=O)c1ccc[nH]c1=O)C1CCCCC1 | 34.6%
COc1cc(C(=O)NCC(=O)N/N=C/c2cccs2)cc(OC)c1OC | 9.91%
Cl.O=S(=O)(NCCc1ccccn1)c1cccs1 | 13.5%
Cc1cccc(N(C(=O)c2nsc(Cl)c2Cl)C(C(=O)NC2CCCC2)c2ccc(O)cc2)c1C (stereo not drawn) | -3.84%
O=C(NNC(=O)c1cnccn1)c1ccc(Cl)c(Cl)c1 | 19%
Cn1cc(S(=O)(=O)N2CCCC2)cc1C(=O)NCCc1ccccc1 | -2.66%
CSCCC(=O)N1CCC(CCC(=O)NC2CC2)CC1 | 3.7%
CCC(=O)N(Cc1cc2ccc(C)cc2[nH]c1=O)c1ccccc1OC | -4.06%
CCCCCCC(O)(CCN1CCCCC1)c1ccccc1.Cl (stereo not drawn) | -70.3%
Cc1cccc(OCC(=O)NNC(=O)c2ccccc2OCc2c(C)noc2C)c1 | -25.4%
CC(C)C1=NN2C(=N)CC(=O)N=C2S1 | 13.8%
O=C(NC(=S)NCc1ccncc1)c1ccccc1 | 8.59%
CCOC(=O)c1[nH]c(C)c(C(=O)NC2CCCC2)c1C | -0.781%
Cc1nc(N2CCOCC2)nc(N2CCCCC2C)c1[N+](=O)[O-] (stereo not drawn) | -0.506%
COc1ccc(OC)c(N2C(=O)/C(=C/c3ccco3)C(=O)NC2=S)c1 | 13%
NNC(=O)c1ccc2c(c1)S(=O)(=O)NNC2=O | 3.14%

Compound | hERG current change (%, negative = inhibition) at 10uM
COc1cc(SC)ccc1C(=O)N(Cc1ccccc1)c1ccccc1 | 9.22%
Cc1nn(-c2ccc(N3CCCCC3)nn2)c(C)c1CCC(=O)Nc1cc(F)ccc1F | -23.8%
CCN1CCN(c2cc(=O)n3ccccc3n2)CC1 | 13.4%
CN(C)/C=N/c1cc(=O)n(Cc2ccccc2)c(=O)n1C | -4.74%
O=C(NCCCl)Nc1cc([N+](=O)[O-])ccc1Cl | 16.9%
Br.CN1CCN(c2nc(-c3cccs3)cs2)CC1 | 10.5%
CC(C)c1ccc(C2CC(=O)N3CN(C)CSC3=C2C#N)cc1 (stereo not drawn) | -6.46%
COc1ccc(C(=O)NCC(=O)OCc2ccc(F)cc2Cl)cc1OC | -1.96%
CN(NC(=O)c1ccccc1F)c1ncccc1[N+](=O)[O-] | 11.7%
O=C(NCc1ccncc1)c1ccc2nc(Cc3ccccc3F)oc2c1 | -18.3%
Cc1ccc(S(=O)(=O)Nc2ccccc2F)cc1C(=O)NNC(=O)c1csc(N2CCOCC2)n1 | -8.32%
O=C(NCc1ccc2c(c1)OCO2)c1ccc2c(c1)C(=O)N(CC1CCCO1)C2=O (stereo not drawn) | 2.28%
COc1ccccc1Oc1cc(C#N)c(C#N)cc1-n1nnc2ccccc21 | 5.34%
Cc1ccccc1OCC(=O)NNC(=O)Nc1ccccc1 | 16.2%
CC(C)(C)OC(=O)NCCCCCC(=O)N/N=C/c1coc2ccccc2c1=O | -9.31%
Cc1ccc(-n2ncc3c(NCc4cccnc4)ncnc32)c(C)c1 | -28.3%
CCc1ccc(NC(=O)CS(=O)CC(=O)Nc2ccc(N3CCOCC3)cc2)cc1 (stereo not drawn) | 2.37%
Cc1nc2scc(C)n2c(=O)c1S(=O)(=O)Nc1ccc(OC(F)(F)F)cc1 | 6.08%
O=C(CN1C(=O)c2ccccc2C1=O)Nc1cccc(O)c1 | 4.28%
Cc1cc(C(=O)NNC(=S)NC2CCCCC2)cs1 | 3.78%
COCc1c(C(=O)OCC(=O)NCCc2ccc(S(N)(=O)=O)cc2)oc2ccccc12 | -0.489%
